This note sets out measurements from the antibiotic and cytotoxicity screens of Wong et al. (2023).

The list shows a part of the results.

One assay deals with HSkMC. Nature of the assay: cytotoxicity call (relative viability < 0.9). Particulars: 10 µM.
The test system of another assay is HepG2. Put plainly: cytotoxicity call (relative viability < 0.9). The following applies: 10 µM.
For another assay, the system named is S. aureus RN4220. Nature of the assay: growth inhibition call (relative growth <= 0.2). The following applies: 50 µM.

As to `O=C(N[C@@H]1CC[C@@H](CC(=O)N2CCOCC2)O[C@@H]1CO)c1ccc2c(c1)OCO2`, the cytotoxicity call in the assay with HSkMC and in the assay on HepG2 was “inactive” in each case. In the assay with S. aureus RN4220, the growth inhibition call is “inactive”.

Consider `C[C@@H]1CCCCO[C@@H](CN(C)Cc2ccc(C(F)(F)F)cc2)[C@@H](C)CN([C@@H](C)CO)C(=O)c2cc(NC(=O)CCCN(C)C)ccc2O1`, for which the cytotoxicity call in the assay with HSkMC and with HepG2 was “inactive” throughout. Besides, the growth inhibition call with S. aureus RN4220 is “inactive”.

Take `C[C@@H]1CN([C@@H](C)CO)C(=O)Cc2cc(NC(=O)NC3CCCCC3)ccc2O[C@H]1CN(C)S(C)(=O)=O`: the cytotoxicity call with HSkMC is “inactive”. In addition, in the assay with HepG2, the cytotoxicity call is “active”. For the same compound, in the assay with S. aureus RN4220, the growth inhibition call is “inactive”.

Regarding `Cc1ccc(S(=O)(=O)N(C)C[C@@H]2OCCCC[C@H](C)Oc3ccc(NC(=O)Nc4ccccc4)cc3C(=O)N([C@H](C)CO)C[C@H]2C)cc1`, the cytotoxicity call in the assay with HSkMC and in the assay with HepG2 was “inactive” throughout. Besides, the growth inhibition call with S. aureus RN4220 is “inactive”.

Turning to `CC[N+](C)(CC)Cc1ccccc1`, the cytotoxicity call with HSkMC and with HepG2 was “inactive” in each case. Further, the growth inhibition call in the assay on S. aureus RN4220 is “inactive”.

`C[C@H](CO)N1C[C@H](C)[C@@H](CN(C)S(C)(=O)=O)Oc2ccc(NS(C)(=O)=O)cc2C1=O`: the cytotoxicity call with HSkMC and with HepG2 was “inactive” throughout. For the same compound, the growth inhibition call with S. aureus RN4220 was “inactive”.

In the case of `CCS(=O)(=O)N1C[C@]2(CN(Cc3ccc4c(c3)OCO4)[C@H](CO)c3c2c2ccc(cc2n3C)OC)C1`, the cytotoxicity call in the assay with HSkMC and in the assay with HepG2 was “inactive” each time. The growth inhibition call in the assay with S. aureus RN4220 was “inactive”.

For the compound `COc1ccc(S(=O)(=O)N(C)C[C@H]2Oc3ccc(NS(=O)(=O)c4c(C)noc4C)cc3C(=O)N([C@@H](C)CO)C[C@H]2C)cc1`, the cytotoxicity call in the assay with HSkMC and in the assay with HepG2 was “inactive” in each case. The growth inhibition call in the assay on S. aureus RN4220 is “inactive”.

Regarding `C[C@@H]1CN([C@@H](C)CO)C(=O)Cc2cc(NC(=O)C3CCCCC3)ccc2O[C@H]1CN(C)Cc1ccc(C(=O)Nc2ccccc2N)cc1`, the cytotoxicity call with HSkMC and with HepG2 was “inactive” throughout. In the assay with S. aureus RN4220, the growth inhibition call was “inactive”.

As for `C[C@@H]1CN([C@H](C)CO)C(=O)c2cc(-c3cccc(C#N)c3)cnc2O[C@H]1CN(C)C(=O)C1CCOCC1`, the cytotoxicity call with HSkMC and with HepG2 was “inactive” throughout. In addition, in the assay with S. aureus RN4220, the growth inhibition call was “inactive”.

In the case of `Cc1ccc(CNc2ccc3c(c2)ncn3C2CCCCC2)cc1`, the cytotoxicity call in the assay on HSkMC and in the assay with HepG2 was “inactive” throughout. For the same compound, the growth inhibition call with S. aureus RN4220 is “active”.

As for `C[C@H]1CN([C@@H](C)CO)C(=O)c2cccc(NC(=O)C3CCCCC3)c2O[C@H]1CN(C)Cc1ccc(Cl)c(Cl)c1`, the cytotoxicity call in the assay on HSkMC and in the assay with HepG2 was “inactive” in each case. The growth inhibition call in the assay on S. aureus RN4220 was “inactive”.

As for `CN1C(=O)c2cc(NC(=O)Cc3cccs3)ccc2OC[C@H]2O[C@H](CC(=O)NCCCN3CCOCC3)CC[C@@H]21`, the cytotoxicity call in the assay on HSkMC and in the assay on HepG2 was “inactive” in each case. Besides, the growth inhibition call in the assay with S. aureus RN4220 is “inactive”.

On to `CC(C)Cc1ccc(/C=C/C=O)cc1`, for which the cytotoxicity call in the assay with HSkMC and with HepG2 was “inactive” in each case. Also, in the assay on S. aureus RN4220, the growth inhibition call is “inactive”.

Consider `C[C@@H]1CN([C@H](C)CO)C(=O)c2cc(NC(=O)C3CCCCC3)ccc2O[C@H]1CN(C)C(=O)Nc1cccc2ccccc12`, for which the cytotoxicity call in the assay on HSkMC and with HepG2 was “inactive” each time. Moreover, in the assay on S. aureus RN4220, the growth inhibition call is “inactive”.

On to `C[C@@H]1CCCCO[C@H](CN(C)C(=O)Nc2ccc3c(c2)OCO3)[C@@H](C)CN([C@H](C)CO)C(=O)c2cc(NC(=O)c3ccncc3)ccc2O1`, for which the cytotoxicity call with HSkMC and in the assay with HepG2 was “inactive” each time. Further, in the assay on S. aureus RN4220, the growth inhibition call is “inactive”.

As to `C[C@H]1CN([C@@H](C)CO)S(=O)(=O)c2ccc(Br)cc2O[C@@H]1CN(C)S(=O)(=O)c1ccccc1F`, the cytotoxicity call with HSkMC and in the assay on HepG2 was “inactive” each time. The growth inhibition call with S. aureus RN4220 was “inactive”.

Regarding `COc1ccccc1C#Cc1ccc2c(c1)O[C@@H](CN(C)C(C)=O)[C@H](C)CN([C@H](C)CO)S2(=O)=O`, the cytotoxicity call in the assay with HSkMC and in the assay with HepG2 was “inactive” each time. Further, in the assay with S. aureus RN4220, the growth inhibition call was “inactive”.

As for `COc1ccc(NC(=O)N(C)C[C@@H]2Oc3ccc(NC(=O)CCCCCC(=O)Nc4ccccc4N)cc3C(=O)N([C@@H](C)CO)C[C@@H]2C)cc1`, the cytotoxicity call in the assay on HSkMC and in the assay with HepG2 was “inactive” each time. Moreover, the growth inhibition call with S. aureus RN4220 is “inactive”.

For the compound `CCCCN1C[C@H](O)[C@@H](O)[C@H](O)[C@H]1CO`, the cytotoxicity call with HSkMC and in the assay on HepG2 was “inactive” throughout. In addition, the growth inhibition call in the assay on S. aureus RN4220 is “inactive”.

`CC(=O)/C=C/c1ccc(-c2ccc([C@H]3CC(=O)C[C@@H](c4ccccc4)C34C(=O)c3ccccc3C4=O)cc2)cc1`: the cytotoxicity call in the assay on HSkMC and in the assay on HepG2 was “inactive” throughout. Besides, in the assay on S. aureus RN4220, the growth inhibition call is “inactive”.

Turning to `CCNC(=O)C[C@@H]1C=C[C@H](NC(=O)C2CCOCC2)[C@@H](CO)O1`, the cytotoxicity call in the assay on HSkMC and with HepG2 was “inactive” throughout. For the same compound, in the assay on S. aureus RN4220, the growth inhibition call was “inactive”.

Regarding `C[C@@H]1CN([C@H](C)CO)C(=O)Cc2cc(NC(=O)Nc3ccc(C(F)(F)F)cc3)ccc2O[C@@H]1CN(C)Cc1ccc2c(c1)OCO2`, the cytotoxicity call in the assay with HSkMC and with HepG2 was “active” each time. Moreover, the growth inhibition call in the assay on S. aureus RN4220 was “inactive”.

With `CCCNc1ncnc(N)c1[N+](=O)[O-]`, the cytotoxicity call in the assay on HSkMC and with HepG2 was “inactive” in each case. Also, the growth inhibition call in the assay with S. aureus RN4220 is “inactive”.

As for `c1cnc(-c2cc[nH]n2)cn1`, the cytotoxicity call in the assay on HSkMC and in the assay with HepG2 was “inactive” each time. For the same compound, in the assay on S. aureus RN4220, the growth inhibition call was “inactive”.

As to `C[C@@H]1CCCCO[C@H](CN(C)Cc2ccc(C(F)(F)F)cc2)[C@H](C)CN([C@H](C)CO)C(=O)c2cc(NC(=O)Cc3ccccc3)ccc2O1`, the cytotoxicity call in the assay with HSkMC was “inactive”. Also, the cytotoxicity call in the assay on HepG2 is “active”. In addition, the growth inhibition call with S. aureus RN4220 is “inactive”.

On to `NNC(=O)CN1CCCc2ccccc21`, for which the cytotoxicity call with HSkMC and in the assay on HepG2 was “inactive” throughout. Further, in the assay with S. aureus RN4220, the growth inhibition call was “inactive”.

Turning to `C[C@@H]1CN([C@@H](C)CO)C(=O)Cc2cc(NC(=O)Nc3ccc(C(F)(F)F)cc3)ccc2O[C@@H]1CN(C)Cc1ccncc1`, the cytotoxicity call in the assay on HSkMC (human skeletal muscle cells) was “inactive”. The cytotoxicity call in the assay on HepG2 was “active”. Moreover, in the assay with S. aureus RN4220, the growth inhibition call was “inactive”.
